Experimental data: the supplement of paper PMC4967469
The IC50 comes from the fitted curve, where viability falls to half of the control; where the fit passes the top or lowest dose, that dose stands as a limit. For AUC the same curve is integrated over the 256-fold range of doses and scaled to a fraction; values near 1 show little effect. For part of these data: A top dose marked as inferred was derived from the fitted curves, not read from the paper.

Assays:
Assay in all cases: Viability of human cancer cell lines after 72 h of drug (GDSC screen)
Trametinib = compound: CC(=O)Nc1cccc(-n2c(=O)n(C3CC3)c(=O)c3c(Nc4ccc(I)cc4F)n(C)c(=O)c(C)c32)c1 [Trametinib]; settings: top dose 1 µM
Method: (§1)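 Human cancer cell lines in 384-well plates, medium with 10% serum, drug for 72 h over a 256-fold dose range (nine 2-fold or five 4-fold steps up to the top dose). Adherent lines were fixed and stained with the nucleic acid dye Syto60, suspension lines read with resazurin; signal relative to control wells, capped at 0 and 100%. One two-parameter sigmoid per drug and line, fitted in a mixed model over all curves with the slope shared within a line.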

AV-951 = compound: COc1cc2nccc(Oc3ccc(NC(=O)Nc4cc(C)on4)c(Cl)c3)c2cc1OC [AV-951]; settings: top dose 0.128 µM; top dose inferred
Method: as §1

HG-6-64-1 = compound: CCN1CCN(Cc2ccc(NC(=O)c3ccc(C)c(/C=C/c4cnc5[nH]ccc5c4OC)c3)cc2C(F)(F)F)CC1 [HG-6-64-1]; settings: top dose 5.12 µM; top dose inferred
Method: as §1

KIN001-244 = compound: O=C(NC(COc1ccc2[nH]c(=O)[nH]c2c1)c1ccccc1)c1cccn(Cc2ccc(F)c(F)c2)c1=O [KIN001-244]; settings: top dose 20 µM; top dose inferred
Method: as §1

PF-4708671 = compound: CCc1cncnc1N1CCN(Cc2nc3ccc(C(F)(F)F)cc3[nH]2)CC1 [PF-4708671]; settings: top dose 10 µM; top dose inferred
Method: as §1

I-BET-762 = compound: CCNC(=O)C[C@@H]1N=C(c2ccc(Cl)cc2)c2cc(OC)ccc2-n2c(C)nnc21 [I-BET-762]; settings: top dose 20 µM; top dose inferred
Method: as §1

Cell Line	AUC (Trametinib)	IC50 (Trametinib)	AUC (AV-951)	IC50 (AV-951)	AUC (HG-6-64-1)	IC50 (HG-6-64-1)	AUC (KIN001-244)	IC50 (KIN001-244)	AUC (PF-4708671)	IC50 (PF-4708671)	AUC (I-BET-762)	IC50 (I-BET-762)
HCC1806 (breast, adherent)	0.923	> 1 µM	0.982	> 0.128 µM	0.755	1.61 µM	0.928	> 20 µM	0.989	> 10 µM	0.967	> 20 µM
HCC1937 (breast, adherent)	0.857	> 1 µM	0.981	> 0.128 µM	0.955	> 5.12 µM	0.906	> 20 µM	0.972	> 10 µM	0.913	> 20 µM
HCC1954 (breast, adherent)	0.642	0.165 µM	0.981	> 0.128 µM	0.974	> 5.12 µM	0.983	> 20 µM	0.937	> 10 µM	0.984	> 20 µM
HCC-15 (lung squamous cell carcinoma, adherent)	0.096	< 0.00391 µM	0.975	> 0.128 µM	0.882	> 5.12 µM	0.942	> 20 µM	0.933	> 10 µM	0.975	> 20 µM
HCC-44 (lung adenocarcinoma, adherent)	0.245	0.0117 µM	0.986	> 0.128 µM	0.69	1.08 µM	0.843	13.7 µM	0.896	> 10 µM	0.785	8.33 µM
HCC-56 (large intestine, adherent)	0.329	0.0206 µM	0.987	> 0.128 µM	0.858	4.37 µM	0.943	> 20 µM	0.982	> 10 µM	0.89	> 20 µM
HCC-827 (lung adenocarcinoma, adherent)	0.883	> 1 µM	0.983	> 0.128 µM	0.706	1.34 µM	0.94	> 20 µM	0.981	> 10 µM	0.983	> 20 µM
HCT-15 (large intestine, adherent)	0.947	> 1 µM	0.98	> 0.128 µM	0.629	0.744 µM	0.915	> 20 µM	0.966	> 10 µM	0.952	> 20 µM
HDQ-P1 (breast, adherent)	0.882	> 1 µM	0.983	> 0.128 µM	0.787	2.7 µM	0.934	> 20 µM	0.974	> 10 µM	0.984	> 20 µM
HEC-1 (endometrium, adherent)	0.979	> 1 µM	0.989	> 0.128 µM	0.776	1.97 µM	0.978	> 20 µM	0.969	> 10 µM	0.989	> 20 µM
HGC-27 (stomach, adherent)	0.984	> 1 µM	0.988	> 0.128 µM	0.457	0.249 µM	0.781	6.99 µM	0.907	> 10 µM	0.847	11.5 µM
HLE (liver, adherent)	0.909	> 1 µM	0.986	> 0.128 µM	0.667	0.906 µM	0.808	9.63 µM	0.981	> 10 µM	0.92	> 20 µM
HN (head and neck, adherent)	0.221	0.0102 µM	0.987	> 0.128 µM	0.969	> 5.12 µM	0.989	> 20 µM	0.966	> 10 µM	0.989	> 20 µM
HO-1-N-1 (head and neck, adherent)	0.158	0.0063 µM	0.989	> 0.128 µM	0.878	4.47 µM	0.973	> 20 µM	0.965	> 10 µM	0.984	> 20 µM
HO-1-u-1 (head and neck, adherent)	0.855	0.745 µM	0.983	> 0.128 µM	0.854	3.77 µM	0.946	> 20 µM	0.976	> 10 µM	0.967	> 20 µM
HOP-92 (large cell lung carcinoma, adherent)	0.411	0.0342 µM	0.981	> 0.128 µM	0.699	1.28 µM	0.979	> 20 µM	0.969	> 10 µM	0.976	> 20 µM
HOS (osteosarcoma, adherent)	0.966	> 1 µM	0.991	> 0.128 µM	0.66	0.821 µM	0.99	> 20 µM	0.99	> 10 µM	0.992	> 20 µM
HPAF-II (pancreas, adherent)	0.185	0.00505 µM	0.967	> 0.128 µM	0.795	3.24 µM	0.82	16.3 µM	0.932	> 10 µM	0.972	> 20 µM
HSC-3 (head and neck, adherent)	0.106	0.00434 µM	0.99	> 0.128 µM	0.666	0.857 µM	0.926	> 20 µM	0.99	> 10 µM	0.99	> 20 µM
HSC-4 (head and neck, adherent)	0.592	0.122 µM	0.978	> 0.128 µM	0.867	> 5.12 µM	0.924	> 20 µM	0.934	> 10 µM	0.978	> 20 µM
HT-115 (large intestine, adherent)	0.869	0.788 µM	0.991	> 0.128 µM	0.941	> 5.12 µM	0.991	> 20 µM	0.97	> 10 µM	0.965	> 20 µM
HT-1080 (fibrosarcoma, adherent)	0.406	0.0355 µM	0.989	> 0.128 µM	0.761	1.64 µM	0.905	> 20 µM	0.91	> 10 µM	0.988	> 20 µM

Cell Line	AUC (Trametinib)	IC50 (Trametinib)	AUC (AV-951)	IC50 (AV-951)	AUC (HG-6-64-1)	IC50 (HG-6-64-1)	AUC (KIN001-244)	IC50 (KIN001-244)	AUC (PF-4708671)	IC50 (PF-4708671)	AUC (I-BET-762)	IC50 (I-BET-762)
HT-1197 (bladder, adherent)	0.798	0.579 µM	0.984	> 0.128 µM	0.725	1.59 µM	0.945	> 20 µM	0.935	> 10 µM	0.945	> 20 µM
HT-1376 (bladder, adherent)	0.853	> 1 µM	0.985	> 0.128 µM	0.733	1.69 µM	0.985	> 20 µM	0.984	> 10 µM	0.985	> 20 µM
HTC-C3 (thyroid, adherent)	0.151	0.00435 µM	0.984	> 0.128 µM	0.61	0.668 µM	0.782	9.46 µM	0.956	> 10 µM	0.76	7.86 µM
HeLa (cervix, adherent)	0.759	0.334 µM	0.989	> 0.128 µM	0.788	2.13 µM	0.908	> 20 µM	0.979	> 10 µM	0.984	> 20 µM
Hep 3B2_1-7 (liver, adherent)	0.264	0.0132 µM	0.987	> 0.128 µM	0.305	0.0908 µM	0.91	> 20 µM	0.941	> 10 µM	0.934	> 20 µM
Hs633T (fibrosarcoma, adherent)	0.105	0.00474 µM	0.991	> 0.128 µM	0.56	0.452 µM	0.845	10.7 µM	0.944	> 10 µM	0.903	17.8 µM
Hs683 (glioma, adherent)	0.875	> 1 µM	0.978	> 0.128 µM	0.798	2.46 µM	0.91	> 20 µM	0.978	> 10 µM	0.976	> 20 µM
Hs746T (stomach, adherent)	0.639	0.174 µM	0.942	> 0.128 µM	0.968	> 5.12 µM	0.84	> 20 µM	0.968	> 10 µM	0.656	3.95 µM
Hs766T (pancreas, adherent)	0.678	0.232 µM	0.975	> 0.128 µM	0.879	> 5.12 µM	0.962	> 20 µM	0.975	> 10 µM	0.97	> 20 µM
Hs940-T (melanoma, adherent)	0.881	> 1 µM	0.982	> 0.128 µM	0.624	0.758 µM	0.983	> 20 µM	0.946	> 10 µM	0.893	> 20 µM
Hs-578-T (breast, adherent)	0.807	0.554 µM	0.987	> 0.128 µM	0.906	> 5.12 µM	0.973	> 20 µM	0.975	> 10 µM	0.986	> 20 µM
HuH-7 (liver, adherent)	0.458	0.0481 µM	0.987	> 0.128 µM	0.535	0.398 µM	0.969	> 20 µM	0.959	> 10 µM	0.684	4.07 µM
HuO9 (osteosarcoma, adherent)	0.93	> 1 µM	0.844	0.107 µM	0.636	0.797 µM	0.914	> 20 µM	0.925	> 10 µM	0.966	> 20 µM
HuO-3N1 (osteosarcoma, adherent)	0.916	> 1 µM	0.923	> 0.128 µM	0.905	> 5.12 µM	0.926	> 20 µM	0.947	> 10 µM	0.931	> 20 µM
HuP-T3 (pancreas, adherent)	0.46	0.0475 µM	0.974	> 0.128 µM	0.928	> 5.12 µM	0.88	> 20 µM	0.953	> 10 µM	0.85	> 20 µM
IA-LM (large cell lung carcinoma, adherent)	0.742	0.339 µM	0.981	> 0.128 µM	0.753	1.9 µM	0.935	> 20 µM	0.962	> 10 µM	0.977	> 20 µM
IHH-4 (thyroid, semi-adherent)	0.056	< 0.00391 µM	0.99	> 0.128 µM	0.577	0.497 µM	0.875	13.2 µM	0.935	> 10 µM	0.984	> 20 µM
IPC-298 (melanoma, adherent)	0.071	< 0.00391 µM	0.987	> 0.128 µM	0.887	> 5.12 µM	0.89	> 20 µM	0.702	2.29 µM	0.781	8.15 µM
J82 (bladder, adherent)	0.897	> 1 µM	0.988	> 0.128 µM	0.468	0.262 µM	0.963	> 20 µM	0.968	> 10 µM	0.985	> 20 µM
JEG-3 (urogenital system, adherent)	0.988	> 1 µM	0.991	> 0.128 µM	0.991	> 5.12 µM	0.991	> 20 µM	0.969	> 10 µM	0.991	> 20 µM
JHH-1 (liver, adherent)	0.181	0.00615 µM	0.985	> 0.128 µM	0.844	4.15 µM	0.77	8.28 µM	0.938	> 10 µM	0.62	2.76 µM
JHH-2 (liver, adherent)	0.797	0.513 µM	0.986	> 0.128 µM	0.97	> 5.12 µM	0.881	> 20 µM	0.952	> 10 µM	0.954	> 20 µM
